The whole screen tested about 39,000 compounds, of which about 220 (0.56%) showed activity. The list shows a part of the results.
Each compound was assayed on Escherichia coli K-12 BW25113 (assay: relative growth (OD600 normalised to plate interquartile mean) (fraction); higher = less growth inhibition, active = 0.2 or less). Settings: 50 µM; LB; incubation time: overnight (16-24 h).
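Also: static incubation at 37 °C against the wild-type strain, values averaged over two biological replicates.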

SMILES | relative growth
CC(C)NC(=O)Nc1cccc2c1O[C@@H](CN(C)Cc1ccc(C(=O)O)cc1)[C@H](C)CN([C@H](C)CO)C2=O | inactive: 0.994
CN(C)CC(=O)N[C@@H]1CC[C@H](CCNS(=O)(=O)c2ccccc2)O[C@H]1CO | inactive: 1.01
CC(=O)O[C@H]1CCS(=O)(=O)C1 | inactive: 1
C[C@@H]1CN([C@H](C)CO)C(=O)c2cccc(NC(=O)c3cnccn3)c2O[C@@H]1CN(C)S(=O)(=O)c1cn(C)cn1 | inactive: 0.989
C[C@@H]1CCCCO[C@@H](CN(C)C(=O)Nc2ccccc2)[C@H](C)CN([C@H](C)CO)C(=O)c2cc(NS(=O)(=O)c3ccccc3)ccc2O1 | inactive: 1.04
CCCN(C)C[C@H]1OCCCC[C@@H](C)Oc2ccc(NC(=O)C3CCCCC3)cc2C(=O)N([C@@H](C)CO)C[C@H]1C | inactive: 1.03
C[C@@H]1CN([C@@H](C)CO)C(=O)Cc2cc(NC(=O)Nc3ccc(F)cc3)ccc2O[C@H]1CN(C)Cc1ccc(Cl)c(Cl)c1 | inactive: 1.03
NC1=NC(=O)C[C@H](Cc2ccccc2)N1 | inactive: 1.01
C[C@H](CO)N1C[C@H](C)[C@H](CN(C)S(=O)(=O)c2ccccc2)Oc2ccc(NC(=O)C3CC3)cc2CC1=O | inactive: 1
COc1ccc(S(=O)(=O)N(C)C[C@@H]2Oc3ncc(C#CC4(O)CCCC4)cc3C(=O)N([C@H](C)CO)C[C@@H]2C)cc1 | inactive: 1
CC(C)NC(=O)N(C)C[C@@H]1Oc2ncc(-c3ccc(C(=O)N(C)C)cc3)cc2C(=O)N([C@H](C)CO)C[C@H]1C | inactive: 0.983
C[C@@H]1CN([C@@H](C)CO)C(=O)Cc2cc(NS(=O)(=O)c3ccc(Cl)cc3)ccc2O[C@H]1CN(C)C(=O)Nc1cccc2ccccc12 | inactive: 1.03
CN(C)C(=N)N=C(N)N | inactive: 1.01
C[C@H](CO)N1C[C@H](C)[C@H](CN(C)C(=O)c2cccc(F)c2)Oc2cc(-c3ccncc3)ccc2S1(=O)=O | inactive: 0.96
CC(C=CC1(O)C(C)=CC(=O)CC1(C)C)=CC(=O)O (mixture of isomers) ["ABSCISIC ACID (cis,trans; +/-)"] | inactive: 1.05
C[C@@H]1CCCCO[C@@H](CN(C)S(=O)(=O)c2ccccc2)[C@H](C)CN([C@H](C)CO)C(=O)c2cc(NC(=O)NC3CCCCC3)ccc2O1 | inactive: 1.01
CC(=O)NCCCC[C@@H]1NC(=O)[C@@H]2C[C@H](C(=O)NCCCCCN)[C@H](c3cccc(OCCO)c3)N2C1=O | inactive: 1.03
c1ccc2c([C@@H]3CCCN3)cccc2c1 | inactive: 1.01
C=CCCCCCCCCCCCC(O)CC(O)CO (centres undefined) | inactive: 0.971
CN1C(=O)c2cc(NC(=O)c3cccc(C#N)c3)ccc2OC[C@H]2O[C@@H](CC(=O)NCCN3CCCC3)CC[C@@H]21 | inactive: 0.967

SMILES | relative growth
C[C@@H]1CN([C@H](C)CO)C(=O)c2ccccc2-c2ccccc2CO[C@H]1CN(C)S(=O)(=O)c1cn(C)cn1 | inactive: 0.934
C[C@H](CO)N1C[C@H](C)[C@H](CN(C)Cc2ccc(C(=O)Nc3ccccc3N)cc2)Oc2ccc(NC(=O)C3CCCCC3)cc2CC1=O | inactive: 0.999
C[C@@H]1CN([C@@H](C)CO)C(=O)c2cc(NC(=O)Cc3ccccc3)ccc2O[C@H]1CN(C)Cc1ccc(-c2ccccc2)cc1 | inactive: 1.02
C[C@H](CO)N1C[C@H](C)[C@H](CN(C)C(=O)Nc2ccc3c(c2)OCO3)OCCCC[C@H](C)Oc2ccc(NC(=O)Cc3ccccc3)cc2C1=O | inactive: 0.991
COC(=O)C[C@H]1CC[C@@H]2[C@H](COc3ccc(NS(=O)(=O)c4ccccc4Cl)cc3C(=O)N2C)O1 | inactive: 1.01
COc1cccc(S(=O)(=O)Nc2ccc3c(c2)[C@@H]2C[C@@H](CC(=O)NC4CCCCC4)O[C@@H](CO)[C@@H]2O3)c1 | inactive: 0.986
C[C@H](CO)N1C[C@H](C)[C@@H](CN(C)S(=O)(=O)c2cn(C)cn2)Oc2ccc(NC(=O)C3CCCCC3)cc2CC1=O | inactive: 1.01
C[C@H](CO)N1C[C@H](C)[C@@H](CN(C)Cc2ccc3c(c2)OCO3)Oc2ccc(NC(=O)Cn3cnnn3)cc2CC1=O | inactive: 0.975
C[C@H](CO)N1C[C@H](C)[C@H](CN(C)Cc2ccc(C(F)(F)F)cc2)OCCCC[C@H](C)Oc2ccc(NC(=O)Nc3ccc4c(c3)OCO4)cc2C1=O | inactive: 1
CO[C@@H]1CN(C)C(=O)c2ccc(NC(=O)Nc3cccc(Cl)c3)cc2OC[C@H](C)N(C(=O)Nc2c(C)noc2C)C[C@@H]1C | inactive: 0.985
Cc1ccc(S(=O)(=O)N(C)C[C@H]2Oc3ccc(NC(=O)Nc4cccc5ccccc45)cc3C(=O)N([C@@H](C)CO)C[C@H]2C)cc1 | inactive: 1.02
COc1ccc(S(=O)(=O)Nc2ccc3c(c2)CC(=O)N([C@H](C)CO)C[C@H](C)[C@@H](CN(C)S(C)(=O)=O)O3)cc1 | inactive: 0.986
CCCCC/C=C\C/C=C\CCCCCCCC(=O)O[C@H](COC(=O)CCCCCCCCCCCCCCC)COP(=O)(O)OCC[N+](C)(C)C | inactive: 0.99
C[C@@H]1CCCCO[C@@H](CN(C)C(=O)Cc2ccccc2)[C@H](C)CN([C@@H](C)CO)C(=O)c2cc(NS(=O)(=O)c3ccc(F)cc3)ccc2O1 | inactive: 0.997
C[C@@H]1CCCCO[C@@H](CN(C)C(=O)Nc2ccc3c(c2)OCO3)[C@H](C)CN([C@@H](C)CO)C(=O)c2cc(NS(=O)(=O)c3ccc(F)cc3)ccc2O1 | inactive: 1.04
C=CC1=C(C(=O)O)N2C(=O)[C@@H](NC(=O)/C(=N\O)c3csc(N)n3)[C@H]2SC1 | active: 0.0321
CC1(C)SC2C(N3C(=O)C(c4ccccc4)NC3(C)C)C(=O)N2C1C(=O)[O-].[K+] (centres undefined) | active: 0.0443
C[C@@H]1CCCCO[C@@H](CN(C)Cc2ccc(C(=O)O)cc2)[C@@H](C)CN([C@@H](C)CO)C(=O)c2cc(NC(=O)Nc3cccc4ccccc34)ccc2O1 | inactive: 0.983
C[C@H](CO)N1C[C@H](C)[C@@H](CN(C)C(=O)c2ccccc2F)Oc2ncc(C#Cc3ccncc3)cc2C1=O | inactive: 0.985

— the supplement of paper PMC9446081
